# Results reported in PubChem BioAssay AID1346428 (National Center for Advancing Translational Sciences (NCATS), 2018).
# Among all 48,000 compounds or so, about 1,200 (2.5%) were called active. Inconclusive results (about 2%) are left out.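 The calls were made as follows: active = activation of at least 60% and not above a set upper limit (about 1 call in 100 departs from these limits); inconclusive = activation of 40% to 60%, or above that upper limit; inactive = activation under 40%.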 The list shows a part of the results.
# Biological target: Probable G-protein coupled receptor 32 (Homo sapiens) (UniProt O75388)
# UniProt O75388, sequence (O75388 whole entry, looked up): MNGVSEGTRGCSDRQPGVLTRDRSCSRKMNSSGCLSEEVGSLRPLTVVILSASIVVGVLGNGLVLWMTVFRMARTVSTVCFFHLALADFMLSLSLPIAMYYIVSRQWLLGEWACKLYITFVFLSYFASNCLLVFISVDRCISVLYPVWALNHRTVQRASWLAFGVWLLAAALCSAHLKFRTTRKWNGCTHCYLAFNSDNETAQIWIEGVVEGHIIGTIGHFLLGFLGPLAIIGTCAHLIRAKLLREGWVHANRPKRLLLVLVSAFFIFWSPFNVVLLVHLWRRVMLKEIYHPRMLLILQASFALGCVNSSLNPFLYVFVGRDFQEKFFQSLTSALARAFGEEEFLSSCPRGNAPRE
# Experiment: qHTS for Agonists of Human Resolvin D1 Receptor DRV1; also: 0% is about no effect
# Details: CHO-K1 GPR32 beta-arrestin PathHunter luminescence, 90 min; at 76.9 µM; active compounds read high; zero percent set by DMSO-only wells
# In short: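 Luminescent readout of beta-Gal complementation quantifies ligand-induced beta-arrestin association with GPR32 in CHO-K1 cells; 90 min compound incubation at 37 °C, detection 1 h at room temperature.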
row,SMILES,activation
1,OCc1ccc(-c2nn(Cc3ccccc3)c3ccccc23)o1,inactive: -28.7%
2,Cc1cc(C)n2nc(SCC(=O)Nc3ccccc3)nc2n1,inactive: 5.17%
3,COc1cc(-c2nnc(SCC(=O)Nc3ccc(F)c(Cl)c3)o2)cc(OC)c1OC,inactive: 1.16%
4,CC(C)N(Cc1ccccc1)C(=O)CCS(=O)(=O)c1cc2c(cc1Cl)NC(=O)CO2,inactive: 6.09%
5,Cc1cc(NC(=O)C(C)C)cc(-c2nc3ncccc3o2)c1O,inactive: 20%
6,Cc1ccc2nc(-c3ccc(O)cc3)c(Nc3ccc4c(c3)OCO4)n2c1,inactive: -13.8%
7,Cc1oc(-c2ccc(Cl)cc2)nc1CS(=O)CC(=O)NCc1ccc(Cl)cc1 (stereo not given),inactive: -8.84%
8,CCCNC(=O)C1CCN(S(=O)(=O)c2ccc3c(c2)CCCN3C(C)=O)CC1,inactive: -9.84%
9,Cc1cc2nc(-c3cc(NC(=O)c4cc5ccccc5o4)ccc3Cl)oc2cc1C,inactive: -0.959%
10,COc1cccc(C(=O)Nc2ccccc2OCc2cc(=O)n3cc(C)ccc3n2)c1,inactive: -7.73%
11,CCc1ccc(NC(=O)CSc2nc3n[nH]c(C)c3c(=N)n2-c2ccccc2C)cc1,active: 61.7%
12,COc1ccc(N(CC(=O)NCCc2cccc(C)c2)S(=O)(=O)c2c(C)nn(C)c2C)cc1,inactive: 0.265%
13,COc1ccccc1N1CCN(C(CNC(=O)C(=O)NCCCN(C)C)c2cccnc2)CC1 (stereo not given),inactive: 3.11%
14,CCOC(=O)C1=C(CS(=O)(=O)c2c(C)cc(C)cc2C)NC(=O)NC1c1cccc(OC)c1 (stereo not given),inactive: 24.4%
15,O=C1CC(c2ccccc2C(F)(F)F)c2c(c3ccccc3[nH]c2=O)O1 (stereo not given),inactive: 4.44%
16,N#Cc1c(NC(=O)c2cc3nc(-c4ccc(Br)cc4)cc(C(F)(F)F)n3n2)sc2c1CCCC2,inactive: -10.1%
17,Cn1c(=O)c2c(ncn2CC(O)CO)n(C)c1=O (stereo not given),inactive: -25.7%
18,CCOc1ccc(-c2c(C)nn3c(C)c(C(=O)Nc4ccccc4C(=O)OC)cnc23)cc1OCC,inactive: 2.29%
19,COC(=O)c1cccc(Nc2c(-c3ccc(O)c(OC)c3)nc3nc[nH]n23)c1,inactive: -23.7%
20,COCc1cc(C)nc2sc3c(c12)NC(c1ccc(O)cc1)N(c1ccc(OC)cc1)C3=O (stereo not given),inactive: -23.5%
21,CCOc1ccc(NC(=O)C2Cc3ccccc3N2C(=O)c2ccccc2)cc1 (stereo not given),inactive: -12%
22,CCCCOc1ccc(CNC(=O)C2CCN(c3nnc(-n4cccc4CNc4ccc(C)cc4)s3)CC2)cc1,inactive: -18.2%

row,SMILES,activation
1,COCCn1c(C)cc(O)c(C(c2ccccc2)N2CCN(C)CC2)c1=O (stereo not given),inactive: -18.7%
2,Cc1ccc(-c2nc3cc(C(C)C)ccc3o2)cc1NC(=O)c1cccs1,inactive: 0.727%
3,COc1cc(Cn2c(=O)sc3ccccc32)ccc1OC(C)C,inactive: 0.731%
4,COc1ccccc1NC(=O)Cc1c(C(=O)O)[nH]c2ccc(Cl)cc12,inactive: -19.5%
5,CCOC(=O)c1ccccc1NC(=O)N1CCC(N2CCN(Cc3ccccc3)C(=O)C2=O)CC1,inactive: 4.15%
6,COC(=O)c1scc(-c2ccc(C)cc2)c1S(=O)(=O)N1CCN(c2ccc(OC)cc2)CC1,inactive: -2.51%
7,COc1cc(OC)c(Nc2nc3ccccc3nc2-n2nc(C)cc2C)cc1Cl,inactive: -25.2%
8,O=C(Cn1c(=O)n(CC2CCCO2)c(=O)c2ccccc21)Nc1cccc(Cl)c1 (stereo not given),inactive: -2.83%
9,Cc1ccc(-c2nc3nc(C)cc(Nc4ccccc4O)n3n2)cc1,active: 72%
10,CCS(=O)(=O)N1CCc2cc(C(=O)NCc3ccccc3)ccc21,inactive: 9.27%
11,Cc1ccc(N)cc1O,inactive: -20.5%
12,Cc1ccc(CCn2c3c(c4cc(Cl)ccc42)CN(C)CC3)cn1,inactive: -4.74%
13,COc1cc(OC)c(NS(=O)(=O)c2cc(-c3cnc(C)o3)ccc2OC)cc1Cl,inactive: -12.7%
14,Cc1ccc2oc(-c3cc(NC(=O)c4ccco4)ccc3Cl)nc2c1,inactive: 42.5%
15,CSc1ncc(C(=O)Nc2ccc(F)cc2F)c(-c2ccccc2)n1,inactive: 43.5%
16,CCCC1=Nc2cc(C(=O)NCCc3ccc(OC)cc3OC)ccc2Sc2ccccc21,inactive: -4.26%
17,CCOc1ccc(OCC)c(NC(=O)CCC(=O)N2CCOc3ccccc32)c1,inactive: -23.4%
18,COCCCNc1nc2c(S(=O)(=O)c3ccc(C)c(C)c3)nnn2c2ccc(Cl)cc12,inactive: -8.73%
19,Cc1ccc(NC(=O)CN2C(=O)CCn3nc(-c4cccn4C)cc32)cc1,inactive: -0.458%
20,Cc1cn(C)c(CC(=O)NCc2ccccc2Cl)c1C(=O)O,inactive: -8.95%
21,Cc1ccc(CNC(=O)c2nn(C)c3c2CS(=O)(=O)c2ccccc2-3)cc1,inactive: -7.7%
22,CCOC(=O)c1ccc(N2C(=O)c3n[nH]c(-c4ccco4)c3C2c2ccc(O)c(OC)c2)cc1 (stereo not given),inactive: 6.52%

row,SMILES,activation
1,CCN(CC)CCNC(=O)c1nn(C)c2c1CS(=O)(=O)c1ccccc1-2,inactive: 2.98%
2,CCC(=O)N1c2ccccc2CC1C(=O)NCCc1ccc(C)cc1 (stereo not given),inactive: -7.84%
3,CCC(C)OC(=O)/C(C#N)=C\c1ccc(-c2ccccc2Cl)o1 (stereo not given),inactive: 3.14%
4,O=C(Nc1nc2nc(-c3ccccc3)cc(=O)n2[nH]1)c1ccc(Cl)cc1,inactive: 7.05%
5,CNC(=O)COc1ccc(NC(=O)CCn2nc(-c3ccc(C)cc3)c3ccccc3c2=O)cc1,inactive: -5.79%
6,C=CC(=O)c1ccc(CCCCCC)cc1,inactive: 11.4%
7,COc1ccc(-n2nc(C(=O)N3CCN(c4cccc(C)c4C)CC3)c3c4ccccc4n(C)c3c2=O)cc1,inactive: -9.1%
8,O=C(CSCc1nc2cccnc2n1C1CCCCC1)NCc1cccc(Cl)c1,inactive: -25.8%
9,COc1ccc(NC(=O)c2sc3nc4n(c(=O)c3c2C)CCC4)cc1Cl,inactive: -9.17%
10,O=C1c2[nH]nc(-c3ccc(Br)cc3)c2C(c2cccc(O)c2)N1c1ccc(Cl)cc1 (stereo not given),active: 95.7%
11,Cc1ccc2scc(N3CCN(c4ccc(F)cc4)CC3)c(=O)c2c1,inactive: -43.7%
12,COc1ccc(-n2c3c(cc(-c4nc(-c5ccc(Cl)cc5)cs4)c2=O)C(=O)CC(C)(C)C3)cc1,inactive: 4.79%
13,COc1cc(C)ccc1OCCn1c(-c2ccc(Cl)cc2)nc2ccccc2c1=O,inactive: 5.94%
14,COc1ccc2c(c1)sc1ncc(C(=O)NCc3cccc(Cl)c3)c(=O)n12,inactive: -10.9%
15,COc1ccc(CCNC(=O)c2ccc3c(c2)N(Cc2cccc(Cl)c2)C(=O)CS3)cc1OC,inactive: -0.96%
16,COc1ccc(C2c3c(n(C)c4ccccc34)C(=O)N2CC(=O)Nc2ccccc2F)cc1 (stereo not given),inactive: -27.7%
17,O=C(NCc1ccc(Cl)cc1)c1cnc2sc(N3CCCC3)nn2c1=O,inactive: 3.98%
18,CCOc1ccc(C(c2c(O)cc(C)n(CCOC)c2=O)N2CCC(C)CC2)cc1 (stereo not given),inactive: -9.77%
19,COc1ccc(Cl)cc1NC(=O)CN(c1cccc(C)c1C)S(=O)(=O)c1ccccc1,inactive: -17.4%
20,O=C(CC1N=C2c3ccccc3N=C(SCc3ccccc3F)N2C1=O)NCc1ccc2c(c1)OCO2 (stereo not given),inactive: 13.9%
21,O=C(Cc1ccc(NC(=O)N2CCSc3ncccc32)cc1)NCCc1ccccc1,inactive: -0.533%
22,Cc1ccc(CCNC(=O)c2ccc(CSCc3ccccc3Cl)o2)cc1,inactive: -16.4%

row,SMILES,activation
1,Cc1ccc(N(C)S(=O)(=O)c2nnc(NC(=O)C3CCCCC3)s2)cc1,inactive: -5.85%
2,CCc1ccc(CNC(=O)c2cc(-c3ccc(Cl)s3)nc3ccccc23)cc1,inactive: -10.2%
3,CCOC(=O)N1CCc2c(sc3c2c(=O)n(-c2ccc(CC)cc2)c(=O)n3CC(=O)Nc2ccc(C)cc2)C1,inactive: -14.2%
4,CCOc1ccc(CNC(=O)c2ccc3c(c2)c(C)c(C)n3Cc2ccc(Cl)cc2)cc1,inactive: -20.6%
5,CN(C)S(=O)(=O)n1cc(/C=C(\NC(=O)c2ccccc2)C(=O)NCCCn2ccnc2)c2ccccc21,inactive: -0.041%
6,O=C(NCCOCCn1c(=O)oc2ccccc21)Nc1ccc(Cl)cc1,inactive: 6.98%
7,Cc1ccccc1NC(=O)c1c(NC(=O)Cc2ccccc2)sc2c1CCC2,inactive: -11.8%
8,CCNc1ccc(-c2nc(-c3ccco3)no2)cc1[N+](=O)[O-],inactive: -6.51%
9,Cc1cc(C)c(NC(=O)c2cc(S(=O)(=O)N3CCN(c4ccccc4F)CC3)ccc2F)c(C)c1,inactive: -1.78%
10,COc1ccc(N2CC(NC(=O)CCc3ccccc3)CC2=O)cc1OC (stereo not given),inactive: -1.02%
11,Cc1ccc2oc(=O)n(CCCOc3ccc(Cl)cc3)c2c1,inactive: -5.65%
12,CCOC(=O)c1cc(-c2ccc(C)cc2)n(CCC(=O)Nc2ccc(C(C)C)cc2)c1C,inactive: -26.2%
13,CN(C)S(=O)(=O)c1ccc(C(=O)NC2CC(=O)N(c3ccc4c(c3)OCCO4)C2)cc1 (stereo not given),inactive: 6.39%
14,Cc1ccc(S(=O)(=O)N(CCc2ccccc2)CC(=O)Nc2cc(C)ccc2C)cc1,inactive: -1.26%
15,Cc1cccc(NC(=O)CS(=O)(=O)c2nc(-c3ccccc3)cn2-c2cccc(Cl)c2)c1C,inactive: -16.8%
16,COc1cc(C2C(C(=O)Nc3ccc(C)cc3C)=C(C)Nc3nc4ccccc4n32)cc(OC)c1OC (stereo not given),inactive: -2.5%
17,Cn1cc(C(=O)NCc2ccccc2)c(=O)c2cc(S(=O)(=O)N3CCOCC3)ccc21,inactive: -8.92%
18,Cc1cccc(NC(=O)Cn2nnc(C(=O)Nc3ccccc3Br)c2N)c1C,inactive: -4.79%
19,COc1cccc(-c2nc(CS(=O)(=O)CC(=O)Nc3c(C)cc(C)cc3C)c(C)o2)c1,inactive: -8.37%
